“And” between values parts separate entries of the source, which are not always exact repeats. Equal values may be shown once. Out of some 390,000 compounds screened, about 930 (0.24%) were called active. Inconclusive results, whose numbers are uncertain, are shown with a selection of clear calls. The call rests on the fitted dose curve; in most records, active means well fitted activation curve with a large enough effect; inconclusive means small, poorly fitted or top-dose-only effect; inactive means no such curve, though single readings can be large or run the other way. Potencies beside an inconclusive call are fits to weak or partial responses and may not hold up.
Assay: qHTS for Suppressors of FUS Proteinopathy: Primary screen using FUS-linked yeast assay; further: nearly all actives have a fitted effect of over 55% in size;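 on growth rescue (activation): plate controls were DMSO vehicle for no effect and reference control for full effect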
Conditions: S. cerevisiae FUS-expressing, OD600, 24 h; Potency: growth rescue; growth rescue (activation): at 76.6 µM (top of the series)
Summary of the method: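 Read-out: OD at 600 nm after 24hr at 30C, reporting rescue of FUS-induced yeast toxicity. Cells at OD 0.005 in galactose (2%) minimal medium; compounds tested in a dilution series; CP55940 titration from 92uM final as control.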
Potency means the concentration at half of the fitted maximal effect; tags describe the fitted curve by direction and shape.

Row | SMILES | Potency | growth rescue (activation)
1 | Cc1ccc(CNC(=O)CN2C(=O)C3CCCCN3c3ccc(C(=O)N(C)C)cc32)cc1 (stereo not drawn) | inactive | 
2 | CCCC1=Nc2cc(C(=O)N3CCN(c4ccccn4)CC3)ccc2Sc2ccc(C)cc21 | inconclusive: 35.5 µM [activator, single point] | 
3 | CC1=C(C(=O)Nc2ccccc2C)C(c2sccc2C)n2ncnc2N1 (stereo not drawn) | inactive | 
4 | COc1ccc(NC(=O)c2cc(-c3ccc(F)cc3OC(C)C)n[nH]2)cn1 | inactive | 
5 | Cn1c(=O)c(=O)n(C)c2cc(S(=O)(=O)CCC(=O)Nc3ccccc3C(F)(F)F)ccc21 | inactive | 
6 | COc1ccc(-n2nc3c(c2NC(=O)c2ccc(Br)o2)CS(=O)(=O)C3)cc1 | inconclusive: 31.6 µM [activator, single point] | 
7 | Cc1ccc(C(c2ccc(C)o2)c2cccc([N+](=O)[O-])c2O)o1 | inconclusive: 6.31 µM [activator, full curve] | 
8 | CCO[C@H]1OC(C(=O)N2CCCCCCC2)=C[C@@H](c2csc3ccccc23)[C@@H]1CCCO | inconclusive: 50.1 µM [activator, single point] | 
9 | CCOc1ccccc1NC(=O)CSc1nc2cc(OC)c(OC)cc2c2nc(CCn3c(C)nc4ccccc43)nn12 | inconclusive: 22.4 µM [activator, partial curve, poor fit] | 
10 | CCCN(CCC)C(=O)Cn1c(SCc2cccc(F)c2)nc2cccnc21 | inactive | 
11 | N#Cc1cccc(NC(=O)C2CCN(S(=O)(=O)c3ccc4c(c3)CCCN4C(=O)C3CCC3)CC2)c1 | inconclusive: 28.2 µM [activator, single point] | 
12 | CCCOc1ccc(CNC(=O)CCCN2C(=O)CSc3c2c(C)nn3-c2ccccc2)cc1 | inconclusive: 14.1 µM [activator, single point] | 
13 | CCOC(=O)C1CCN(C(c2ccc(C)cc2)c2sc3nc(-c4ccco4)nn3c2O)CC1 (stereo not drawn) | inconclusive: 14.1 µM [activator, partial curve] | 
14 | O=C(c1ccoc1)N1CCN(c2cc(-c3cccnc3)nc3cc(-c4cccc(Cl)c4)nn23)CC1 | inconclusive: 39.8 µM [activator, partial curve, poor fit] | 
15 | CCCCCCNC(=O)c1c(N)[nH]c(C(=O)c2ccccc2)c1-c1ccc(O)cc1 | inconclusive: 44.7 µM [activator, single point] | 
16 | CC(C)(C)OC(=O)NCCCc1ccc2c(c1)[C@]1(CCC[C@@H](OCc3ccccc3)[C@@H]1NC(=O)CCc1ccccc1)C(=O)N2Cc1ccccc1 | inconclusive: 17.8 µM [activator, partial curve, poor fit] | 
17 | COc1ccc(N(C)C(=O)c2oc(=O)c3ccccc3c2-c2ccc(C)cc2)c(OC)c1 | inconclusive: 12.6 µM [activator, partial curve] and inconclusive: 28.2 µM [activator, single point] | 
18 | CN(CC(=O)NCc1ccccc1)CC(=O)Nc1ccc(Cl)c(C(F)(F)F)c1 | inconclusive: 15.8 µM [activator, partial curve] | 
19 | CSCCC(NC(=O)c1ccc(Cl)cc1)C(=O)OCC(=O)Nc1ccc(C#N)cc1 (stereo not drawn) | inactive | 
20 | COc1ccc(NC(=O)[C@@H]2[C@@H]3C(=O)N(C4CCCCC4)C(=O)[C@@H]3C3c4ccccc4C=CN32)cc1 (stereo partly drawn) | inconclusive: 15.8 µM [activator, single point] | 

Row | SMILES | Potency | growth rescue (activation)
21 | CCCC(=O)NC(=S)NNC(=O)c1ccc([N+](=O)[O-])cc1 | inactive | 
22 | O=C(c1cc(Sc2cccc(Cl)c2)nc2ccccc12)N1CCN(c2ccccn2)CC1 | inconclusive: 35.5 µM [activator, single point] | 
23 | O=C(Nc1nc(-c2ccc(S(=O)(=O)N3CCCCCC3)cc2)cs1)c1ccccc1 | inconclusive: 20 µM [activator, partial curve, poor fit] | 
24 | COc1ccc(C2(C)NC(=O)N(CC(=O)Nc3ccc(S(=O)(=O)N4CCCC4)cc3)C2=O)cc1 (stereo not drawn) | inconclusive: 28.2 µM [activator, single point] | 
25 | CCCCCCn1cc(CN2CC(N3CCN(Cc4ccccc4F)CC3)CS2(=O)=O)nn1 (stereo not drawn) | inactive | 
26 | CCCCC[C@@H](C)N1C[C@H](COCc2ccccc2)Oc2cc(N3CC[C@H](O)C3)ccc2S1(=O)=O | inconclusive: 35.5 µM [activator, single point] | 
27 | Cc1ccc(C(=O)N2CCN(c3ccc([N+](=O)[O-])cc3-n3cccc3)CC2)cc1 | inconclusive: 31.6 µM [activator, single point] | 
28 | CCCN(CCC)C(=O)CSc1nc2n[nH]c(C)c2c(=N)n1-c1ccc(OCC)cc1 | inconclusive: 35.5 µM [activator, single point] | 
29 | COc1cccc(CNc2sc3c(c2C(=O)Nc2ccc(OC)cc2OC)CCC3)c1 | inconclusive: 39.8 µM [activator, single point] | 
30 | COc1ccccc1-c1oc2ccccc2c1C#CCCCCO | inconclusive: 20 µM [activator, partial curve] | 
31 | COc1ccc(NC(=O)c2[nH]c(C)c(C(C)=O)c2C)cc1Cl |  | inconclusive: -51.7% [activator]
32 | CCCCNc1c(-c2cccc(-c3cc(C(C)=O)cs3)c2)nc2cc(C)ccn12 | inconclusive: 35.5 µM [activator, single point] | 
33 | COc1ccc(N2CCN(C(=O)CCNS(=O)(=O)c3cc(Br)cnc3N)CC2)cc1 | inconclusive: 35.5 µM [activator, single point] | 
34 | Cc1ccc(CN2CCCCC(NC(=O)Nc3cccc([N+](=O)[O-])c3)C2=O)cc1 (stereo not drawn) | inactive | 
35 | CC1(C)CC(=O)C=C(NCCN2CCN(C(=O)Nc3ccccc3)CC2)C1 |  | inconclusive: 58.4% [activator]
36 | COc1cccc(-c2cnc3c(NC(C)=O)cc(-c4ccsc4)cn23)c1 | inconclusive: 50.1 µM [activator, single point] | 
37 | CCc1ccc2c(Cl)c(C(=O)N/N=C/c3c[nH]c4ccccc34)sc2c1 | inconclusive: 8.91 µM [activator, partial curve] | 
38 | COc1ccc(-c2cc(C(F)F)n3ncc(C(=O)N4CCc5ccccc54)c3n2)cc1 | inactive | 
39 | CC1(c2nnnn2-c2ccc3c(c2)OCCO3)CSCC(=O)N1CCc1c[nH]c2ccccc12 (stereo not drawn) | inactive | 
40 | COc1cccc(C(=O)NCCc2sc(-c3cccc(C)c3)nc2C)c1 | inconclusive: 39.8 µM [activator, single point] | 

Row | SMILES | Potency | growth rescue (activation)
41 | Cc1cccc(C)c1NC(=O)c1cc(S(=O)(=O)N2CCCc3ccccc32)ccc1F | inconclusive: 28.2 µM [activator, partial curve, poor fit] | 
42 | CC(C)C[C@H](NC(=O)c1[nH]cnc1C(=O)N[C@@H](C)C(=O)OCc1ccccc1)C(=O)OC(C)(C)C | inconclusive: 20 µM [activator, single point] | 
43 | O=[N+]([O-])c1cc(-c2csc(NCCc3nc4cc(Cl)c(Cl)cc4n3CCCO)n2)ccc1Cl | inconclusive: 28.2 µM [activator, single point] | 
44 | NC(=O)CN1C(=O)/C(=c2\sc3nc(=O)c(Cc4ccccc4)nn3c2=O)c2ccccc21 | inactive | 
45 | CCN1C(=O)[C@H]2[C@@H](c3ccc(-c4ccc(C(C)=O)cc4)c(OC)c3)N[C@@](Cc3ccccc3)(C(=O)OC)[C@H]2C1=O | inconclusive: 20 µM [activator, partial curve, poor fit] | 
46 | COC(=O)[C@]12C[C@H](CC(=O)NCc3ccccc3)C(=O)N(Cc3cccc4ccccc34)C1=C[C@H](C1CCCC1)O[C@@H]2C | inconclusive: 31.6 µM [activator, single point] | 
47 | Cc1c(-c2nc3ccccc3[nH]2)cnn1C | inactive | 
48 | N#Cc1cccc(NC(=O)O[C@@H]2CC[C@@]34CCCN3C(=O)CCC[C@H]4C2)c1 | inactive | 
49 | O=C(/C=C/NNC(=O)c1ccccc1)c1ccc(Br)cc1 | inconclusive: 50.1 µM [activator, partial curve, poor fit] | 
50 | C#CCN(C[C@@H]1[C@@H](OC(=O)NCc2ccccc2F)[C@@H](OC(=O)NCc2ccccc2F)Cn2c(=O)ccc(=O)n21)S(=O)(=O)c1ccc(C)cc1 | inconclusive: 39.8 µM [activator, single point] | 
51 | COc1ccc(CC(=O)c2ccc(O)cc2O)cc1 | inactive | 
52 | Cc1cccn2c(=O)c(C=O)c(N3CCCCC3)nc12 | inactive | 
53 | N#C/C(=C\c1cn[nH]c1-c1ccc(Cl)cc1)C(=O)NCc1ccccc1 | inconclusive: 17.8 µM [activator, partial curve, poor fit] | 
54 | CCOC(=O)[C@]12CCCC=C1N(Cc1cccc3ccccc13)C(=O)[C@H](CC(=O)NCC13CC4CC(CC(C4)C1)C3)C2 | inconclusive: 25.1 µM [activator, single point] | 
55 | CCC(=O)N1CCc2cc(S(=O)(=O)NC(Cc3ccccc3)C(=O)NCc3cccc(OC)c3)ccc21 (stereo not drawn) | inconclusive: 25.1 µM [activator, partial curve] | 
56 | COc1ccc(-c2cn3nc(N4CCCC(C(=O)NCCCOC(C)C)C4)sc3n2)cc1 (stereo not drawn) | inconclusive: 31.6 µM [activator, single point] | 
57 | CCOC(=O)N1CCN(C(=O)C[C@@H]2C(=O)N(CCc3ccc(Cl)cc3)/C3=C/CCCCC[C@@]32C(=O)OCC)CC1 | inconclusive: 25.1 µM [activator, partial curve, poor fit] | 
58 | COc1ccc2cc(CNc3ccccc3)c(=O)n(CC(=O)Nc3ccc(C(C)=O)cc3)c2c1 | inconclusive: 5.01 µM [activator, single point] | 

— PubChem BioAssay AID1347120 (National Center for Advancing Translational Sciences (NCATS), 2019)
